According to PubChem BioAssay AID686979 (National Center for Advancing Translational Sciences (NCATS), 2013):
The whole screen tested about 420,000 compounds, of which about 50,000 (12%) were called active. The inconclusive results got no clear call from the source; some entries with a clear call stand among them for comparison. The call rests on the fitted dose curve; in most records, active means well fitted inhibition curve with a large enough effect; inconclusive means small, poorly fitted or top-dose-only effect; inactive means flat fitted curve, though single readings scatter. Potencies of inconclusive entries are left out as doubtful fits.

Assay: qHTS for Inhibitors of human tyrosyl-DNA phosphodiesterase 1 (TDP1): qHTS in cells in presence of CPT; further: nearly all actives have a fitted effect of over 55% in size
Conditions: chicken DT40 Tdp1-/-;hTDP1 cells + 20 nM CPT, ATP luminescence, 48 h; activity change, negative = growth inhibition: at 46.2 µM (top of the series)
Summary of the method: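 Chicken DT40 Tdp1-/- cells complemented with human TDP1, 400 cells/well, exposed to compounds plus 20 nM camptothecin for at least 48 h at 37 C; viability read as ATP content by CellTiter-Glo luminescence.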
On the % scale 0 is the no-effect control and ±100 the full control effect; potency means the concentration at half of the fitted maximal effect; tags describe the fitted curve by direction and shape.

Structure (SMILES) | Potency | activity change, negative = growth inhibition
COc1ccc(-c2nn3c(=O)cc(CN4CCN(C(=O)Nc5ccc(C)c(Cl)c5)CC4)nc3s2)cc1 | inactive | 
CNC(=S)NNC(=O)CCn1nc(C)c(Br)c1C | inconclusive [inhibitor, partial curve] | 
CN1CCN(CCC(=O)Nc2ccc(C3CCCC3)cc2)CC1 | inconclusive [inhibitor, single point] | 
C=CCC1NS(=O)(=O)OCC1NC(=O)OCC(Cl)(Cl)Cl (centres undefined) | inactive | 
Cc1nnc(SCc2cc(=O)[nH]c(/N=C(\N)Nc3ccccc3)n2)s1 | inconclusive [inhibitor, single point] | 
C[C@H](NC(=O)c1nc[nH]c1C(=O)NC1CCN(C(=O)OC(C)(C)C)CC1)C(=O)OCc1ccccc1 | inconclusive [inhibitor, single point] | 
CCC(=O)Nc1ccccc1C(=O)OCC(=O)c1cccc2ccccc12 | inconclusive [inhibitor, single point] | 
C[C@H](CO)N1C[C@H](C)[C@H](CN(C)S(=O)(=O)c2ccc(F)cc2)Oc2ncc(Br)cc2C1=O | inconclusive [inhibitor, partial curve] | 
CCOc1cc(/C=C2\SC(=N)N(c3nccs3)C2=O)ccc1OCCN1CCOCC1 | active: 16.4 µM | 
O=C(Nc1ccccc1C(=O)Nc1ccccc1C(=O)NCc1ccco1)c1ccco1 | active: 16.4 µM | 
Cn1c(NC(=O)c2ccc(S(=O)(=O)N3CCOCC3)cc2)cc(=O)n(C)c1=O | inactive | 
COc1ccc(C)cc1S(=O)(=O)N1CCOCC1 | inconclusive [inhibitor, single point] | 
COCC(=O)N1c2nc(C(C)C)nn2C2(CCCCC2)[C@@H]2CCCC[C@@H]21 | active: 2.91 µM | 
COc1ccc(NC(=O)CCC(=O)OCc2ccc([N+](=O)[O-])cc2)cc1 | inactive | 
COc1cccc(N2C(=O)Nc3ccc(Br)cc3C2(O)C(=O)NCCN(C)C)c1 (centres undefined) | inactive | 
Cc1ccc(NS(=O)(=O)c2ccc3[nH]c4c(c3c2)CCCCCC4)cc1Cl | inconclusive [inhibitor, partial curve, poor fit] | 
CCOC(=O)c1sc(NC(=O)c2cc(CC)on2)c(C(=O)OCC)c1C |  | inconclusive: -0.596% [inhibitor]
COc1ccc(-c2noc([C@@H]3O[C@H](CO)[C@H](O)[C@H](O)[C@H]3O)n2)cc1OC | inactive | 
COc1ccc(Cc2nnc(SCC(=O)c3ccccc3)o2)cc1 | inconclusive [inhibitor, partial curve, poor fit] | 
